Reference: the supplement of paper PMC10369915
The other results are listed elsewhere or left out. Rule as the data show it: active = 3.2 or more and inactive = the rest. The signal is at background level for most entries.

How the values were obtained:
Assay in all cases: enrichment score (SH2-bound / input frequency) (ratio); bacterial display of known human phosphotyrosine sites (pTyr-Var adds point mutants) read by sequencing; higher = stronger binding; tyrosines were phosphorylated by kinases first
Conditions in all cases: peptide library: pTyr-Var
SHP2 C-SH2 domain E139D = target: SHP2 C-SH2 domain E139D
[1] = target: SHP2 C-SH2 domain wild-type
SHP2 N-SH2 domain L43F = target: SHP2 N-SH2 domain L43F
SHP2 N-SH2 domain T42A = target: SHP2 N-SH2 domain T42A
SHP2 N-SH2 domain T52S = target: SHP2 N-SH2 domain T52S
[2] = target: SHP2 N-SH2 domain wild-type

Measured: enrichment score
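Also: displayed peptides selected on beads carrying the immobilized SH2 domain, with library peptides lacking any tyrosine serving as negative controls.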

SDGHEYIFVDP [PDGFRB_Y579_YF]
inactive: SHP2 C-SH2 domain E139D 1.15 | [1] 0.69 | SHP2 N-SH2 domain L43F 0.716 | SHP2 N-SH2 domain T42A 0.662 | SHP2 N-SH2 domain T52S 0.71 | [2] 0.525

LSGFCYRLSDQ [PDCD6_Y124_G123C]
inactive: SHP2 C-SH2 domain E139D 0.839 | [1] 0.92 | SHP2 N-SH2 domain L43F 0.669 | SHP2 N-SH2 domain T42A 0.828 | SHP2 N-SH2 domain T52S 0.902 | [2] 1.16

HILRVYGGVLP [PCNX4_Y999]
inactive: SHP2 C-SH2 domain E139D 1.69 | [1] 1.58 | SHP2 N-SH2 domain L43F 2.1 | SHP2 N-SH2 domain T42A 1.23 | SHP2 N-SH2 domain T52S 2.15 | [2] 1.55

EAVKNYTDKRG [PBRM1_Y672]
inactive: SHP2 C-SH2 domain E139D 0.561 | [1] 0.668 | SHP2 N-SH2 domain L43F 0.673 | SHP2 N-SH2 domain T42A 0.546 | SHP2 N-SH2 domain T52S 0.555 | [2] 0.732

NFATLYLKIYH [PDE6B_Y219]
inactive: SHP2 C-SH2 domain E139D 1.75 | [1] 1.65 | SHP2 N-SH2 domain L43F 2.08 | SHP2 N-SH2 domain T42A 2.55 | SHP2 N-SH2 domain T52S 2.12 | [2] 2.07

HILRVYSGVLP [PCNX4_Y999_G1000S]
inactive: SHP2 C-SH2 domain E139D 1.42 | [1] 1.41 | SHP2 N-SH2 domain L43F 2.29 | SHP2 N-SH2 domain T42A 1.27 | SHP2 N-SH2 domain T52S 2.13 | [2] 1.83

LINPKYSVEEE [PCDH19_Y27_L25P]
inactive: SHP2 C-SH2 domain E139D 0.852 | [1] 1.16 | SHP2 N-SH2 domain L43F 0.509 | SHP2 N-SH2 domain T42A 0.866 | SHP2 N-SH2 domain T52S 1.41 | [2] 1.16

IQRSLYDRPAS [PDGFRA_Y762]
inactive: SHP2 C-SH2 domain E139D 0.63 | [1] 0.633 | SHP2 N-SH2 domain L43F 0.62 | SHP2 N-SH2 domain T42A 0.565 | SHP2 N-SH2 domain T52S 0.605 | [2] 1.08

YIGVTYKNKED [PDGFRA_Y993_E996K]
inactive: SHP2 C-SH2 domain E139D 1.16 | [1] 1.43 | SHP2 N-SH2 domain L43F 1.17 | SHP2 N-SH2 domain T42A 1.55 | SHP2 N-SH2 domain T52S 1.51 | [2] 1.31

LCHELYNTIRD [PBRM1_Y54_V49L]
inactive: SHP2 C-SH2 domain E139D 1.42 | [1] 0.715 | SHP2 N-SH2 domain L43F 0.722 | SHP2 N-SH2 domain T42A 0.713 | SHP2 N-SH2 domain T52S 0.937 | [2] 0.883

PDGHEYIYVDP [PDGFRA_Y572]
inactive: SHP2 C-SH2 domain E139D 0.73 | [1] 0.712 | SHP2 N-SH2 domain L43F 0.824 | SHP2 N-SH2 domain T42A 0.914 | SHP2 N-SH2 domain T52S 0.931 | [2] 0.455

VECRVYAEDPY [PCCA_Y401]
inactive: SHP2 C-SH2 domain E139D 0.892 | [1] 1.28 | SHP2 N-SH2 domain L43F 0.799 | SHP2 N-SH2 domain T42A 0.843 | SHP2 N-SH2 domain T52S 0.842 | [2] 1.26

VECQVYAEDPY [PCCA_Y401_R399Q]
inactive: SHP2 C-SH2 domain E139D 0.888 | [1] 1.28 | SHP2 N-SH2 domain L43F 1.17 | SHP2 N-SH2 domain T42A 0.988 | SHP2 N-SH2 domain T52S 0.774 | [2] 1.62

VCHELYNAIRD [PBRM1_Y54_T56A]
inactive: SHP2 C-SH2 domain E139D 1.08 | [1] 1.1 | SHP2 N-SH2 domain L43F 1.12 | SHP2 N-SH2 domain T42A 0.825 | SHP2 N-SH2 domain T52S 1.04 | [2] 1.39

FSKRIYKGMVA [PCDH15_Y931]
inactive: SHP2 C-SH2 domain E139D 0.764 | [1] 0.597 | SHP2 N-SH2 domain L43F 0.51 | SHP2 N-SH2 domain T42A 0.585 | SHP2 N-SH2 domain T52S 0.66 | [2] 0.663

LINLKYSVEEE [PCDH19_Y27]
inactive: SHP2 C-SH2 domain E139D 1.67 | [1] 0.923 | SHP2 N-SH2 domain L43F 1.28 | SHP2 N-SH2 domain T42A 1.51 | SHP2 N-SH2 domain T52S 1.59 | [2] 1.33

NFATLYLKIFH [PDE6B_Y219_YF]
inactive: SHP2 C-SH2 domain E139D 2.17 | [1] 2.36 | SHP2 N-SH2 domain L43F 2.05 | SHP2 N-SH2 domain T42A 3.05 | SHP2 N-SH2 domain T52S 1.87 | [2] 2.07

DALDNYVIRGV [PCCA_Y473]
inactive: SHP2 C-SH2 domain E139D 0.925 | [1] 0.869 | SHP2 N-SH2 domain L43F 0.89 | SHP2 N-SH2 domain T42A 0.87 | SHP2 N-SH2 domain T52S 0.946 | [2] 0.806

KNKELYSDLFD [PDE10A_Y300]
inactive: SHP2 C-SH2 domain E139D 1.13 | [1] 0.724 | SHP2 N-SH2 domain L43F 0.858 | SHP2 N-SH2 domain T42A 1.03 | SHP2 N-SH2 domain T52S 0.75 | [2] 0.838

DALDNYVVRGV [PCCA_Y473_I475V]
inactive: SHP2 C-SH2 domain E139D 0.712 | [1] 0.716 | SHP2 N-SH2 domain L43F 0.772 | SHP2 N-SH2 domain T42A 0.701 | SHP2 N-SH2 domain T52S 0.822 | [2] 0.717

SDGHEYIFVDR [PDGFRB_Y579_P584R_YF]
inactive: SHP2 C-SH2 domain E139D 0.796 | [1] 0.662 | SHP2 N-SH2 domain L43F 0.654 | SHP2 N-SH2 domain T42A 0.679 | SHP2 N-SH2 domain T52S 0.574 | [2] 0.811

FHKALYTVRTY [PDE6C_Y266_S270T]
inactive: SHP2 C-SH2 domain E139D 0.681 | [1] 0.689 | SHP2 N-SH2 domain L43F 0.628 | SHP2 N-SH2 domain T42A 0.714 | SHP2 N-SH2 domain T52S 0.61 | [2] 0.904

MHYSNYVSKGS [PDGFRA_Y849_D846Y]
inactive: SHP2 C-SH2 domain E139D 0.634 | [1] 0.647 | SHP2 N-SH2 domain L43F 0.597 | SHP2 N-SH2 domain T42A 2.16 | SHP2 N-SH2 domain T52S 0.64 | [2] 0.6

FHKALYTVRTF [PDE6C_Y266_S270T_YF]
inactive: SHP2 C-SH2 domain E139D 0.747 | [1] 0.64 | SHP2 N-SH2 domain L43F 0.629 | SHP2 N-SH2 domain T42A 0.403 | SHP2 N-SH2 domain T52S 0.566 | [2] 0.745

SDGHEYIYVDP [PDGFRB_Y579]
inactive: SHP2 C-SH2 domain E139D 0.389 | [1] 0.493 | SHP2 N-SH2 domain L43F 0.379 | SHP2 N-SH2 domain T42A 0.43 | SHP2 N-SH2 domain T52S 0.365 | [2] 0.394

VECRVYAEDPF [PCCA_Y401_YF]
inactive: SHP2 C-SH2 domain E139D 0.721 | [1] 0.933 | SHP2 N-SH2 domain L43F 1.06 | SHP2 N-SH2 domain T42A 0.695 | SHP2 N-SH2 domain T52S 0.69 | [2] 1.15

FIGVTYKNKED [PDGFRA_Y993_E996K_YF]
inactive: SHP2 C-SH2 domain E139D 1.61 | [1] 1.15 | SHP2 N-SH2 domain L43F 1.28 | SHP2 N-SH2 domain T42A 1.36 | SHP2 N-SH2 domain T52S 1.69 | [2] 1.34

LSGFGYRLSDQ [PDCD6_Y124]
inactive: SHP2 C-SH2 domain E139D 1.29 | [1] 0.939 | SHP2 N-SH2 domain L43F 1.18 | SHP2 N-SH2 domain T42A 1.4 | SHP2 N-SH2 domain T52S 1.2 | [2] 1.29

FIGVTYKNEED [PDGFRA_Y993_YF]
inactive: SHP2 C-SH2 domain E139D 1.65 | [1] 1.2 | SHP2 N-SH2 domain L43F 1.47 | SHP2 N-SH2 domain T42A 1.46 | SHP2 N-SH2 domain T52S 1.47 | [2] 1.38

PMQLPYDSRWE [PDGFRA_Y582]
inactive: SHP2 C-SH2 domain E139D 1.03 | [1] 0.818 | SHP2 N-SH2 domain L43F 0.73 | SHP2 N-SH2 domain T42A 0.791 | SHP2 N-SH2 domain T52S 0.837 | [2] 0.964

IYHLSYHHNCE [PDE6B_Y227_L228H]
inactive: SHP2 C-SH2 domain E139D 2.07 | [1] 2.1 | SHP2 N-SH2 domain L43F 2.33 | SHP2 N-SH2 domain T42A 2.06 | SHP2 N-SH2 domain T52S 1.95 | [2] 2.27

IPTPAYQSLPA [PDCD6IP_Y727_S730L]
inactive: SHP2 C-SH2 domain E139D 0.895 | [1] 0.702 | SHP2 N-SH2 domain L43F 0.736 | SHP2 N-SH2 domain T42A 0.639 | SHP2 N-SH2 domain T52S 0.795 | [2] 0.815

FQRITYHNWRH [PDE6B_Y556_R552Q_YF]
active: SHP2 C-SH2 domain E139D 3.98 | [1] 3.89 | SHP2 N-SH2 domain L43F 3.8 | SHP2 N-SH2 domain T42A 3.31 | SHP2 N-SH2 domain T52S 4.41 | [2] 3.82

PMQLPYDSTWE [PDGFRB_Y589]
inactive: SHP2 C-SH2 domain E139D 0.767 | [1] 0.663 | SHP2 N-SH2 domain L43F 0.737 | SHP2 N-SH2 domain T42A 0.764 | SHP2 N-SH2 domain T52S 0.611 | [2] 0.829

IQRSLYDCPAS [PDGFRA_Y762_R764C]
inactive: SHP2 C-SH2 domain E139D 0.689 | [1] 0.69 | SHP2 N-SH2 domain L43F 0.591 | SHP2 N-SH2 domain T42A 0.715 | SHP2 N-SH2 domain T52S 0.644 | [2] 0.786

NFATLHLKIYH [PDE6B_Y219_Y219H]
inactive: SHP2 C-SH2 domain E139D 3.17 | SHP2 N-SH2 domain L43F 2.82 | SHP2 N-SH2 domain T42A 2.38 | SHP2 N-SH2 domain T52S 2.86 | [2] 2.62
active: [1] 3.33

YRQNVYIPGSN [PCDHGA1_Y895]
inactive: SHP2 C-SH2 domain E139D 0.7 | [1] 0.574 | SHP2 N-SH2 domain L43F 0.631 | SHP2 N-SH2 domain T42A 0.555 | SHP2 N-SH2 domain T52S 0.652 | [2] 0.799
